Laboratory results: the supplement of paper PMC3334620
The full ranking holds about 33,000 sequences; the median of “E-score (-0.5 to 0.5)” is about -0.032, and the highest 2% start at about 0.36. The list shows a part of the results.

biological target: T1, Sko1 (UniProt Q02100); experiment: PBM E-score (8-mer binding enrichment) (E-score (-0.5 to 0.5)); higher = stronger / more preferred TF binding; most listed sequences are background and not binding sites; conditions: protein concentration: 200 nM; construct: GST-full length
T1 sequence: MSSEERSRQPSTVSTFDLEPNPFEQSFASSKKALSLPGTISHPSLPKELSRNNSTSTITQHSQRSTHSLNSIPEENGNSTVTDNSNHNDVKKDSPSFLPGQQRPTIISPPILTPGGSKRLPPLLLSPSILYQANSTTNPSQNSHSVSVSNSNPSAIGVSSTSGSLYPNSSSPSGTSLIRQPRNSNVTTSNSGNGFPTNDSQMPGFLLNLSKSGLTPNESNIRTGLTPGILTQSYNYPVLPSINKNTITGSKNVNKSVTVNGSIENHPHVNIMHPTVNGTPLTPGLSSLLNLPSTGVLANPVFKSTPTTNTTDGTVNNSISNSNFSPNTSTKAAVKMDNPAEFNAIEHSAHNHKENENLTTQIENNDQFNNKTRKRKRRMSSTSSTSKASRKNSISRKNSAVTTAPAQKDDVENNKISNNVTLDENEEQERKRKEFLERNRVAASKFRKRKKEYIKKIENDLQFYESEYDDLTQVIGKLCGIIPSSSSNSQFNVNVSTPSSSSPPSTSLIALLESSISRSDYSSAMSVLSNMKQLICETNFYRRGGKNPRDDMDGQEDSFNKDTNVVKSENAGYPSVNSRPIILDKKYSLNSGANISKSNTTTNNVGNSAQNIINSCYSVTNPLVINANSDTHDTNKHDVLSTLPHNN
Description: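 Universal 'all 10-mer' protein binding microarrays (Agilent AMADID 015681) probed with GST-tagged S. cerevisiae TFs (full-length or DBD) made by in vitro transcription/translation (PURExpress), about 100-200 nM. Bound TF was detected with fluorescent anti-GST. Each ungapped 8-mer (which stands for itself and its reverse complement) is scored by the PBM enrichment score (E-score), a modified Wilcoxon-Mann-Whitney statistic from -0.5 to +0.5, computed with the Universal PBM Analysis Suite. Scale: above 0.35 generally sequence-specific binding.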

Sequence | PBM E-score
AAACCCCT | -0.326
ATTAGAAC | 0.175
ACATGAGA | 0.184
ACGGGTTG | -0.0864
GGTAAGCA | -0.235
ATGGGCGC | -0.247
GAGTGGTA | -0.0433
GTCCCCAC | -0.115
ATGTCAAT | 0.226
AGCCTGCG | -0.229
AATCGAAC | 0.0773
ATCTTCGG | 0.155
GTTACAAC | 0.114
AAACTAAT | 0.275
ATTTGGGA | 0.0335
ACGTGCCT | 0.239
ATCCCATC | -0.0438
GACTAGAA | 0.0577
CTTGGGTA | -0.0702
ATCGGCGG | -0.176
ACATCAGC | 0.153
CGGACCCC | -0.113
CTTCGAAC | -0.124
TATAGGAA | 0.19
GCCACTCA | -0.118

Sequence | PBM E-score
GACTCACC | -0.118
CAGTTGTC | 0.0392
GGACTGCA | -0.168
GTATCAGA | 0.0996
AGTACCCC | -0.241
AGGATGGA | -0.253
ATTGCAAT | 0.0317
ATCGACAA | -0.0524
AGCATGTC | -0.0862
GGATAACA | -0.128
ACGTTCAA | 0.266
ATATTAGG | 0.147
ATCAAAGA | 0.00292
GATTCGGC | -0.129
GCCTATCC | -0.11
CCCTAGAG | -0.32
TAACGACA | 0.191
GTAGCTCA | 0.0173
AAATACAT | 0.252
ACAACTGC | -0.079
AGGGACCT | -0.209
ATGATCTG | 0.151
CGCTGTGC | -0.202
CAACATCC | -0.281
CGACAAGC | -0.251

Sequence | PBM E-score
CCGGGAGC | -0.296
AGGCTGAG | -0.138
CCAAAGTA | -0.0943
GAAGTTAA | -0.0699
CAAACCAC | 0.0506
ACATCAAT | 0.285
ACATCAAC | 0.159
AAACCCAG | -0.156
CCACCAAG | -0.374
GACCAAGC | -0.0837
AATAACAC | 0.139
AACATCCA | 0.0185
ATCAATGC | -0.112
GGACAAAC | -0.0937
GAAAAGGA | -0.0667
ATAGCCAG | -0.0476
CCTGATCG | -0.175
ATTTGTGA | -0.00762
AAATTGAT | 0.084
TCCTGCCA | -0.292
GAGCTAAA | -0.0589
ACCTCCAA | -0.189
ATGGAAAA | -0.0735
ACGGGTCA | -0.252
AAAGCTTT | -0.0511

Sequence | PBM E-score
ACTCAGAC | -0.0311
AGTACGGA | -0.0994
ACAGCCCG | -0.163
AAAACAGT | 0.0855
ATAGTCTC | 0.0223
ACGCCTTG | -0.0512
AGTCTGAA | 0.0457
AAAAGGCC | -0.186
AGAGAGAA | -0.0788
CTGATGGA | -0.118
CCGGCTGC | -0.0698
CAATAAAA | 0.187
AATCTCTG | -0.00643
AGAGGAAA | -0.135
CTGTAGAA | -0.134
GAGTCAGA | -0.0744
CCAATTAA | 0.00205
AAAAACGG | -0.117
AGTGTTAA | 0.128
AACTCCGA | -0.176
ACTAACAG | 0.0358
ACACAGAG | -0.0374
CCGTTATA | 0.0635
ATGCATTA | 0.26
GATAGCAA | 0.16

Sequence | PBM E-score
AGGACAAT | -0.14
ACTGAGCC | -0.0526
CAGAGAGA | -0.185
AAATCCAA | 0.0927
ATAACTGG | -0.132
GAAGGAGA | 0.0914
CTAGCAAG | -0.209
GGAGAACA | -0.0204
CAAACCTG | -0.0692
GGTAAAAC | 0.157
ACAATCCG | -0.0353
ATGGAGGA | 0.0757
CTGAGCGA | 0.0843
AGGGCGCA | -0.175
GAGGCCTA | -0.097
CACGTATC | 0.393
CAGGGTCA | -0.168
CAAGGTGG | -0.192
CACAACGA | 0.113
CGCTGCCC | -0.336
CCTTGTGA | 0.014
CGGTTTCA | -0.086
AGAAATTC | 0.00511
AGCTAAGG | -0.176
ACCACCAC | 0.00488

Sequence | PBM E-score
AAATCGCA | 0.0506
CAGTGCCG | -0.107
GCAGATTA | 0.0653
CGGGGTAG | -0.238
AATTATTC | 0.198
GAATCGCC | -0.312
TTGGTAAA | 0.176
AGGCTTCC | -0.0277
CCCGTGAA | -0.159
CGGATGTA | -0.13
AGGAGGCA | -0.291
TGATCTAA | 0.22
GTAGAAAA | 0.148
AGCCGATA | -0.00978
GGTCTGAA | -0.0247
CTTGACTC | -0.276
ACTTACGG | 0.172
ATGAGGCC | -0.157
GCTGTGGA | -0.114
ACAGACGG | -0.262
AAATGGCC | -0.199
CAAAGGGA | -0.049
TGCGTTAA | 0.157
AGTACCAA | 0.101
CCGGGCCC | -0.204

Sequence | PBM E-score
AGCACGTC | 0.309
ACGGCGGA | -0.268
CACGGTTA | 0.163
CAAATTCC | 0.0969
CCATAGAA | 0.032
AACATCAC | 0.286
GGAATCGA | -0.212
GTATCACA | 0.191
TTACAGAA | -0.0258
AGTCGTGG | -0.168
GAACAAAC | 0.115
ATACACAC | 0.13
ACAGTATG | 0.0478
AGTCCACA | -0.0149
AGCGCCTC | -0.262
CACTTCCA | 0.109
CATATAAC | 0.0712
ACCCCACT | -0.145
CGGGTTCA | -0.146
AAATGTAT | 0.143
GGTCTTCA | -0.194
CAAGCCGA | -0.00099
